# Measurements from PubChem BioAssay AID886 (National Center for Advancing Translational Sciences (NCATS), 2007).
# Among all 73,000 compounds or so, about 2,500 (3.4%) were called active. Inconclusive results, whose numbers are uncertain, are shown with a selection of clear calls. Calls follow the shape of the dose curve; as a rule, active = well fitted inhibition curve with a large enough effect; inconclusive = small, poorly fitted or top-dose-only effect; inactive = no such curve, though single readings can be large or run the other way. A potency beside an inconclusive call is a rough fit, not a confirmed value.
# Target: 3-hydroxyacyl-CoA dehydrogenase type-2 (Homo sapiens) (UniProt Q99714)
# Experiment: qHTS Assay for Inhibitors of HADH2 (Hydroxyacyl-Coenzyme A Dehydrogenase, Type II); also: nearly all actives have a fitted effect of over 60% in size
# Details: recombinant HADH2, NADH fluorescence, beta-hydroxybutyryl-CoA; activity change, negative = inhibition: at 57.1 µM (top of the series)
# Summary of the method: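 His-tagged recombinant enzyme from E. coli, 20 nM, preincubated 15 min RT with compound; reaction started with 1 mM NAD+ and 90 uM beta-hydroxybutyryl-CoA in 100 mM Tris-HCl pH 9.0. NADH fluorescence (ex 360/em 450) read over 4 min; last-minus-first difference.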
# % is scaled to controls: 0 for no effect and ±100 for the full control effect; potency is read from the fitted curve at half-maximal effect; tags tell the direction and shape of the fitted curve.
# Sequence of UniProt Q99714 (Q99714 whole entry, looked up): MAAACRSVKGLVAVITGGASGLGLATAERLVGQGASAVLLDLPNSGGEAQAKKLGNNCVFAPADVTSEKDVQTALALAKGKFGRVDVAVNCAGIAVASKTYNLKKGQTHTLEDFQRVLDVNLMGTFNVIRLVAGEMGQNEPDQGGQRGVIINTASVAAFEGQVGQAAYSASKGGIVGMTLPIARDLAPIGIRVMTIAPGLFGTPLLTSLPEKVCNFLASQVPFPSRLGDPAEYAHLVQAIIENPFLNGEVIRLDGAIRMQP
# Sequence of UniProt Q99714 (Q99714 whole entry, looked up): as above
SMILES,Potency,"activity change, negative = inhibition"
CCCCNC(=O)CCC(=O)Nc1ccc2nc(N3CCOCC3)cc(C)c2c1,active: 25.1 µM,
COc1ccc(OC)c(Nc2ncnc3c2cnn3-c2cccc(C)c2)c1,active: 31.6 µM,
CCOc1ccccc1NC(=O)CSc1nnc(-c2ccco2)o1,"inconclusive: 1.26 µM [inhibitor, full curve, poor fit]",
CCN(CC)CCOC(=O)c1ccc(NC(=O)CCNC(=O)Cn2ccc3ccccc3c2=O)cc1,,inactive: 17.4%
CNc1ncnc2ccc(-c3ccccc3C)cc12,,inactive: 1.79%
COc1ccc2[nH]c(C(=O)O)c(NS(=O)(=O)c3ccc(OC)c(OC)c3)c2c1,"inconclusive: 25.1 µM [inhibitor, single point]",
O=C(CSc1nc2cc(Cl)ccc2o1)c1cccs1,"inconclusive: 12.6 µM [inhibitor, partial curve]",
CC1=C(C(=O)OCC2CCCO2)C(c2ccncc2)C2=C(CC(C)(C)CC2=O)N1 (stereo not drawn),active: 25.1 µM,
CCOc1cc(-c2c(C)c(CC)nc(N)c2C#N)ccc1O,,inactive: -20.8%
N#C/C(=C\c1ccc(O)c(O)c1)C(=O)NCCCc1ccccc1,"inconclusive: 10 µM [inhibitor, partial curve]",
Cn1cc(C(=O)c2ccc(Cl)cc2)cc1-c1nc2ccccc2n1C,"inconclusive: 31.6 µM [inhibitor, single point]",
C=CCn1c(NC(=O)c2ccco2)c(S(=O)(=O)c2ccccc2)c2nc3ccccc3nc21,"inconclusive: 39.8 µM [inhibitor, single point]",
S=c1[nH]nc(-c2ccc(Br)cc2)n1Cc1ccco1,"inconclusive: 25.1 µM [inhibitor, partial curve]",
CCn1c(SCc2nc3ccccc3c(=O)[nH]2)nc2ccccc2c1=O,,inactive: 0.266%
COc1cccc(C2/C(=C(/O)c3ccncc3)C(=O)C(=O)N2CCCN2CCOCC2)c1OC (stereo not drawn),,inactive: -6.43%
CN(c1ccccc1C(=O)O)S(=O)(=O)c1ccc2c3c(cccc13)C(=O)N2,"inconclusive: 39.8 µM [inhibitor, single point]",
CCNS(=O)(=O)c1ccc(NC(=O)c2ccccc2OCC)cc1,"inconclusive: 12.6 µM [inhibitor, partial curve, poor fit]",
Cc1ccc(Cn2c(SCC(C)C)nc3c2c(=O)[nH]c(=O)n3C)cc1,"inconclusive: 39.8 µM [inhibitor, single point]",
NS(=O)(=O)c1ccc(N=Nc2cc3ccccc3c(C(=O)O)c2O)cc1,,inactive: 7.85% [at 11.4 µM]

SMILES,Potency,"activity change, negative = inhibition"
Cc1ccc(-c2nc3ccccc3[nH]2)s1,active: 25.1 µM,
Cc1ccc(-c2cc(C(=O)N3CCOCC3)c3ccccc3n2)cc1,"inconclusive: 31.6 µM [inhibitor, single point]",
Cc1ccc2cc(C)c(N3CCN(c4ccccn4)CC3)nc2c1,"inconclusive: 39.8 µM [inhibitor, single point]",
COc1cc(S(=O)(=O)NCc2ccc3c(c2)OCO3)ccc1Cl,,inactive: -13.7%
Cc1ccc(S(=O)(=O)N(c2ccccc2)C2CCS(=O)(=O)C2)cc1 (stereo not drawn),,inactive: 15.1%
Cn1c2ccccc2c2ncn(Cc3ccco3)c(=O)c21,"inconclusive: 39.8 µM [inhibitor, single point]",
CCOc1ccc(-n2c(=S)sc3c(=O)[nH]c(SCC(=O)NCc4ccco4)nc32)cc1,"inconclusive: 31.6 µM [inhibitor, single point]",
COc1ccc(C)cc1NC(=O)CSc1nnc(-c2ccc(Br)cc2)o1,,inactive: 27.1%
COCCNc1ncnc2ccc(-c3ccoc3)cc12,"inconclusive: 31.6 µM [inhibitor, single point]",
CCc1c(O)c2c(c(O)c1C(C)=O)C(=O)c1c(cc(O)c(C(=O)O)c1C(=O)O)C2=O,"inconclusive: 1 µM [inhibitor, partial curve]",
Fc1cnc(N2CCN(c3ccccc3)CC2)nc1N1CCN(c2ccccc2)CC1,"inconclusive: 31.6 µM [inhibitor, partial curve]",
Cc1ncoc1C(=O)Nc1ccccc1-c1ccccc1,"inconclusive: 25.1 µM [inhibitor, single point]",
COc1nc(-c2ccccc2)ccc1-c1noc(-c2ccccc2F)n1,active: 10 µM,
COc1ccc(C2CCCN2C(=O)c2cccs2)cc1 (stereo not drawn),"inconclusive: 12.6 µM [inhibitor, partial curve]",
COc1cc(-c2nnc3sc(Cc4ccc(Cl)cc4)nn23)cc(OC)c1OC,active: 10 µM,
Cc1ccnc(SCCn2c(N3CCCCC3)nc3c2c(=O)n(C)c(=O)n3C)n1,"inconclusive: 6.31 µM [inhibitor, single point]",
CCN(CC)c1ccc(-c2nc3cnccc3n2C)cc1,,inactive: -15.8%
O=c1nc2s/c(=C\c3ccco3)c(=O)n2nc1Cc1ccc(F)cc1,"inconclusive: 25.1 µM [inhibitor, single point]",
Cc1sc2nc(CSc3nnc(Cc4cccs4)n3C3CCCCC3)[nH]c(=O)c2c1C,"inconclusive: 39.8 µM [inhibitor, single point]",
